The supplement of paper PMC10126150
Sequences with one replicate were seen in a single cluster, so their values are uncertain.

Test system: ATP
Experiment: switch fluorescence ratio, 500 uM ATP over buffer (Cy3 cluster intensity, sum of 5 cycles each) (fold (ratio)); higher = stronger signal-on switching upon ATP binding; sequences stand for … in TCGTCGGCAGCGTCAGATGTGTATAAGAGACAGTTTTTTTTTTTTTTTTTTTTTTTTT…TC
Details: aptamer strand: ATP DNA aptamer (quencher-CACCTGGGGGAGTATTGCGGAGGAAGG + anchor), 100 nM annealed; ATP concentration: 500 uM; one replicate
In short: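 Cy3-labelled switching-strand clusters on a modified Illumina MiSeq flow-cell were annealed to 100 nM quencher-labelled ATP aptamer, imaged in selection buffer, then imaged after 15 min with 500 uM ATP at 22 °C. Five buffer/ATP cycles ran, with NaOH stripping and re-annealing between them. The fluorescence ratio is summed target-cycle over summed buffer-cycle Cy3 intensity per cluster, averaged per switch-domain sequence. Clusters outside 100-1000 RFU were excluded.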
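Also: ATP exposure 15 min at 22 °C before imaging.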

Q: GCTCTGGTCG was tested. Which switch fluorescence ratio did it give?
A: 1.04

Q: With GCTCTTACAT as the sequence, how does the switch fluorescence ratio read?
A: 0.985

Q: GCTCTTACTG was tested. Which switch fluorescence ratio did it give?
A: 0.989

Q: Which switch fluorescence ratio does the source give for GCTCTTAT here?
A: 1.01

Q: How did the switch fluorescence ratio turn out when GCTCTTCGTA was run?
A: 1.02

Q: Which switch fluorescence ratio does the source give for GCTGAAGAGA here?
A: 0.98

Q: Which switch fluorescence ratio does the source give for GCTGAGAGAA here?
A: 1

Q: With GCTGAGGAGT as the sequence, how does the switch fluorescence ratio read?
A: 1

Q: With GCTGAGGTGT as the sequence, how does the switch fluorescence ratio read?
A: 1.08

Q: How did the switch fluorescence ratio turn out when GCTGAGTGAC was run?
A: 0.957

Q: How did the switch fluorescence ratio turn out when GCTGCCGTTA was run?
A: 1.03

Q: How did the switch fluorescence ratio turn out when GCTGCGGGCG was run?
A: 1.04

Q: GCTGCTCAGG was tested. Which switch fluorescence ratio did it give?
A: 1.08

Q: Which switch fluorescence ratio does the source give for GCTGGAGGAG here?
A: 0.984

Q: GCTGGAGTCG was tested. Which switch fluorescence ratio did it give?
A: 0.997

Q: Which switch fluorescence ratio does the source give for GCTGGCCCTT here?
A: 0.982

Q: For GCTGGGATGT, which switch fluorescence ratio is on record?
A: 1

Q: GCTGGGGAT was tested. Which switch fluorescence ratio did it give?
A: 0.989

Q: For GCTGGTACAT, which switch fluorescence ratio is on record?
A: 1.01

Q: GCTGGTGGAG was tested. Which switch fluorescence ratio did it give?
A: 0.983

Q: GCTGGTGGCC was tested. Which switch fluorescence ratio did it give?
A: 1.01

Q: With GCTGGTTCGG as the sequence, how does the switch fluorescence ratio read?
A: 1

Q: How did the switch fluorescence ratio turn out when GCTGTAAGCT was run?
A: 1.01

Q: With GCTGTCTAGG as the sequence, how does the switch fluorescence ratio read?
A: 0.978

Q: Which switch fluorescence ratio does the source give for GCTGTCTCC here?
A: 1.03

Q: How did the switch fluorescence ratio turn out when GCTGTGAACG was run?
A: 1

Q: Which switch fluorescence ratio does the source give for GCTGTGGTGT here?
A: 1.08

Q: How did the switch fluorescence ratio turn out when GCTGTTAACT was run?
A: 1.02

Q: For GCTGTTAGGC, which switch fluorescence ratio is on record?
A: 1

Q: With GCTTATGTCA as the sequence, how does the switch fluorescence ratio read?
A: 0.997

Q: With GCTTCATGTT as the sequence, how does the switch fluorescence ratio read?
A: 0.959

Q: With GCTTCCGATT as the sequence, how does the switch fluorescence ratio read?
A: 1.43

Q: Which switch fluorescence ratio does the source give for GCTTCGATGT here?
A: 1.04

Q: For GCTTCGCACG, which switch fluorescence ratio is on record?
A: 1.53

Q: How did the switch fluorescence ratio turn out when GCTTCGGGAA was run?
A: 1.13

Q: How did the switch fluorescence ratio turn out when GCTTCTGTCA was run?
A: 0.931

Q: How did the switch fluorescence ratio turn out when GCTTGAAGCA was run?
A: 1.01

Q: How did the switch fluorescence ratio turn out when GCTTGACTAT was run?
A: 1.03

Q: GCTTGAGGCC was tested. Which switch fluorescence ratio did it give?
A: 1.03

Q: GCTTGCCCCG was tested. Which switch fluorescence ratio did it give?
A: 0.963

Q: Which switch fluorescence ratio does the source give for GCTTGTAACC here?
A: 0.974

Q: With GCTTGTATAG as the sequence, how does the switch fluorescence ratio read?
A: 0.997

Q: With GCTTGTTAGT as the sequence, how does the switch fluorescence ratio read?
A: 1.02

Q: For GCTTGTTGAA, which switch fluorescence ratio is on record?
A: 0.976

Q: GCTTGTTTTC was tested. Which switch fluorescence ratio did it give?
A: 1.01

Q: Which switch fluorescence ratio does the source give for GCTTTAACGG here?
A: 1

Q: GCTTTACTTT was tested. Which switch fluorescence ratio did it give?
A: 1.01

Q: GCTTTCAGCC was tested. Which switch fluorescence ratio did it give?
A: 1.02

Q: With GCTTTGGCCT as the sequence, how does the switch fluorescence ratio read?
A: 1.01

Q: Which switch fluorescence ratio does the source give for GCTTTGTGAA here?
A: 0.999

Q: Which switch fluorescence ratio does the source give for GCTTTTAATG here?
A: 0.996

Q: GCTTTTAGCT was tested. Which switch fluorescence ratio did it give?
A: 0.983

Q: Which switch fluorescence ratio does the source give for GCTTTTCAGT here?
A: 0.983

Q: GCTTTTGTAA was tested. Which switch fluorescence ratio did it give?
A: 0.982

Q: How did the switch fluorescence ratio turn out when GCTTTTTCAC was run?
A: 0.985

Q: How did the switch fluorescence ratio turn out when GGAAAAAGAC was run?
A: 1.04

Q: Which switch fluorescence ratio does the source give for GGAAAAGGAT here?
A: 0.957

Q: How did the switch fluorescence ratio turn out when GGAAAAGTCT was run?
A: 0.992

Q: Which switch fluorescence ratio does the source give for GGAAAATTAT here?
A: 0.998

Q: GGAAACAGG was tested. Which switch fluorescence ratio did it give?
A: 0.983

Q: With GGAAACGCAT as the sequence, how does the switch fluorescence ratio read?
A: 1.35

Q: Which switch fluorescence ratio does the source give for GGAAACGCTA here?
A: 1.26

Q: How did the switch fluorescence ratio turn out when GGAAACTGAT was run?
A: 1.01

Q: Which switch fluorescence ratio does the source give for GGAAAGAGAA here?
A: 0.998

Q: GGAAAGGCAG was tested. Which switch fluorescence ratio did it give?
A: 0.995

Q: How did the switch fluorescence ratio turn out when GGAAAGGGTC was run?
A: 1.02

Q: How did the switch fluorescence ratio turn out when GGAAAGTGAA was run?
A: 0.944

Q: For GGAAATATCT, which switch fluorescence ratio is on record?
A: 0.993

Q: For GGAAATCTCT, which switch fluorescence ratio is on record?
A: 1.04

Q: For GGAAATTTGC, which switch fluorescence ratio is on record?
A: 1.02

Q: With GGAACAGGGA as the sequence, how does the switch fluorescence ratio read?
A: 0.955

Q: GGAACATGGT was tested. Which switch fluorescence ratio did it give?
A: 0.929

Q: For GGAACCAGCG, which switch fluorescence ratio is on record?
A: 1.07

Q: GGAACCCATC was tested. Which switch fluorescence ratio did it give?
A: 1.03

Q: For GGAACGCACT, which switch fluorescence ratio is on record?
A: 1.15

Q: For GGAACTGGGG, which switch fluorescence ratio is on record?
A: 0.988

Q: With GGAAGAAGGT as the sequence, how does the switch fluorescence ratio read?
A: 1.02

Q: Which switch fluorescence ratio does the source give for GGAAGCAGAT here?
A: 1

Q: Which switch fluorescence ratio does the source give for GGAAGCCTTT here?
A: 1.19

Q: With GGAAGCTCGG as the sequence, how does the switch fluorescence ratio read?
A: 1.01

Q: For GGAAGGGTGT, which switch fluorescence ratio is on record?
A: 1.04

Q: With GGAAGTACAA as the sequence, how does the switch fluorescence ratio read?
A: 1.25

Q: GGAAGTTGCA was tested. Which switch fluorescence ratio did it give?
A: 1.03

Q: Which switch fluorescence ratio does the source give for GGAAGTTTTA here?
A: 0.978

Q: Which switch fluorescence ratio does the source give for GGAATAAAGG here?
A: 1

Q: With GGAATACATT as the sequence, how does the switch fluorescence ratio read?
A: 0.992

Q: For GGAATAGGTT, which switch fluorescence ratio is on record?
A: 0.995

Q: For GGAATCAGT, which switch fluorescence ratio is on record?
A: 1.05

Q: With GGAATGAATC as the sequence, how does the switch fluorescence ratio read?
A: 1

Q: GGAATTACAT was tested. Which switch fluorescence ratio did it give?
A: 1.03

Q: With GGAATTGTTA as the sequence, how does the switch fluorescence ratio read?
A: 0.997

Q: With GGACACACTG as the sequence, how does the switch fluorescence ratio read?
A: 1.06

Q: Which switch fluorescence ratio does the source give for GGACACATTG here?
A: 1.04

Q: How did the switch fluorescence ratio turn out when GGACACGGTT was run?
A: 0.995

Q: Which switch fluorescence ratio does the source give for GGACAGGGTG here?
A: 1.04

Q: With GGACCATCTT as the sequence, how does the switch fluorescence ratio read?
A: 1

Q: Which switch fluorescence ratio does the source give for GGACCATTGT here?
A: 0.977

Q: With GGACCCGACC as the sequence, how does the switch fluorescence ratio read?
A: 1.14

Q: How did the switch fluorescence ratio turn out when GGACCGCTTG was run?
A: 1.02

Q: How did the switch fluorescence ratio turn out when GGACCGGCGG was run?
A: 1.01
